Assay results taken from the supplement of paper PMC12355420.
Where a name gives a salt, the structure may show the parent alone. This is one part of the list. No stated cut-off is given here; in the data, active = 0.5 or less and inactive = the rest. Many values rest on one well or one pass, so single values are uncertain.

Key:
Settings in all cases: 50 µM; 24 h
[1] = tested on: HeLa VPS33A reporter cells; assay: relative cell viability (CellMask signal) vs DMSO (fraction of DMSO); higher = less cytotoxic;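 further: primary screen of an FDA-approved drug library in HeLa reporter cells in 96-well format, CellMask signal normalized to DMSO-treated wells set as 1, under 0.5 deemed highly cytotoxic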
[2] = tested on: HeLa VPS33A R498W KI + HA-SDC1-FLAG; assay: relative GAG core protein HA-SDC1 amount per cell number vs DMSO (fraction of DMSO); higher = more SDC1 (GAG core protein);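 further: HA-SDC1 level read out by In-Cell Western staining with an anti-HA antibody against the N-terminal tag, screening FDA-approved library drugs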
[3] = tested on: HeLa VPS33A KO + NLuc-VPS33A R498W; assay: relative mutant VPS33A R498W amount (NanoLuc luminescence) vs DMSO (fraction of DMSO); HeLa model of a glycosaminoglycan (GAG) storage disease; KI is knock-in and KO knock-out; SDC1 is syndecan 1; higher = higher mutant VPS33A level;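 further: screen of an FDA-approved drug library, NanoLuc luminescence read after lysing the treated cells, taken as a measure of mutant VPS33A protein stability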

Structure (SMILES) | relative cell viability [1] | relative GAG core protein HA-SDC1 amount per cell number [2] | relative mutant VPS33A R498W amount [3]
CNC(=O)c1cnn(-c2nc(N)c3ncn([C@@H]4O[C@H](CO)[C@@H](O)[C@H]4O)c3n2)c1 [Regadenoson] | 1.13 | inactive: 0.909 | 1.08
C[N+](C)(C)CCOC(=O)CCC(=O)OCC[N+](C)(C)C [Succinylcholine Chloride Dihydrate] | 0.946 | inactive: 1.49 | 1.25
O=C(O)Cc1ccccc1Nc1c(Cl)cccc1Cl [Diclofenac Potassium] | 0.986 | inactive: 0.584 | 0.725
CCOC(=O)C1=C(C)NC(C)=C(C(=O)OCC)C1c1ccccc1/C=C/C(=O)OC(C)(C)C [Lacidipine] | 1.15 | inactive: 0.672 | 0.644
CC[C@H](C)C(=O)O[C@H]1C[C@H](O)C=C2C=C[C@H](C)[C@H](CC[C@@H](O)C[C@@H](O)CC(=O)O)[C@H]21 [Pravastatin sodium] | 1.05 | inactive: 1.15 | 1.24
CS(=O)(=O)N1CCN(Cc2cc3nc(-c4cccc5[nH]ncc45)nc(N4CCOCC4)c3s2)CC1 | 1.11 | inactive: 0.88 | 2.88
CCCc1nn(C)c2c(=O)[nH]c(-c3cc(S(=O)(=O)N4CCN(C)CC4)ccc3OCC)nc12 [Sildenafil mesylate] | 1.04 | inactive: 0.908 | 0.654
O=C(CCCN1CCN(c2ccccn2)CC1)c1ccc(F)cc1 [Azaperone] | 1.14 | inactive: 1.12 | 1.15
CC(/C=C1\SC(=S)N(CC(=O)O)C1=O)=C\c1ccccc1 [Epalrestat] | 0.865 | inactive: 1.1 | 1.2
NC1=NCC2c3ccccc3Cc3ccccc3N12 (centres undefined) [Epinastine HCl] | 0.915 | inactive: 0.611 | 0.76
COc1ccc2c(c1)c(CC(=O)OCC(=O)O)c(C)n2C(=O)c1ccc(Cl)cc1 [Acemetacin] | 1.16 | inactive: 1.07 | 1.18
CCCNC(C)C(=O)Nc1ccccc1C (centres undefined) [Prilocaine hydrochloride] | 1.12 | inactive: 1.13 | 1.08
C[C@]12CCC(=O)C=C1[C@@H]1C[C@@H]1[C@H]1[C@@H]3[C@@H]4C[C@@H]4[C@@]4(CCC(=O)O4)[C@@]3(C)CC[C@@H]12 [Drospirenone] | 1.28 | inactive: 0.619 | 1.12
NS(=O)(=O)c1cc2c(cc1Cl)NCNS2(=O)=O [Hydrochlorothiazide] | 0.998 | inactive: 0.863 | 1.11
NCCC(O)(P(=O)(O)O)P(=O)(O)O [Pamidronate] | 0.754 | inactive: 1.19 | 1.08
CCn1cc(C(=O)O)c(=O)c2cc(F)c(N3CCN(C)CC3)cc21 [Pefloxacin Mesylate Dihydrate] | 1.05 | inactive: 0.813 | 1.09
COc1cc2nccc(Oc3ccc(NC(=O)C4(C(=O)Nc5ccc(F)cc5)CC4)cc3)c2cc1OC | 1.22 | inactive: 1.17 | 1.07
Clc1ccc(CCCOCCCN2CCCCC2)cc1 [Pitolisant hydrochloride] | 0.938 | inactive: 1 | 0.533
C[C@]12C=CC(=O)N[C@@H]1CC[C@@H]1[C@@H]2CC[C@]2(C)[C@@H](C(=O)Nc3cc(C(F)(F)F)ccc3C(F)(F)F)CC[C@@H]12 [Dutasteride] | 0.973 | inactive: 1.41 | 1.65
CO[C@H]1/C=C/O[C@@]2(C)Oc3c(C)c(O)c4c(O)c(c(/C=N/N5CCN(C)CC5)c(O)c4c3C2=O)NC(=O)/C(C)=C\C=C\[C@H](C)[C@H](O)[C@@H](C)[C@@H](O)[C@@H](C)[C@H](OC(C)=O)[C@@H]1C [Rifampin] | 1.07 | inactive: 0.75 | 0.993

Structure (SMILES) | relative cell viability [1] | relative GAG core protein HA-SDC1 amount per cell number [2] | relative mutant VPS33A R498W amount [3]
CCCCNC(=O)NS(=O)(=O)c1ccc(C)cc1 [Tolbutamide] | 1.04 | inactive: 0.819 | 1.45
C/C=C1\[C@H]2C=C(C)C[C@]1(N)c1ccc(=O)[nH]c1C2 [(-)-Huperzine A] | 1.14 | inactive: 1.1 | 1.38
C#CCC(Cc1cnc2nc(N)nc(N)c2n1)c1ccc(C(=O)N[C@@H](CCC(=O)O)C(=O)O)cc1 (some centres undefined) [Pralatrexate] | 0.972 | inactive: 0.809 | 0.382
CCOc1ccc(Cc2cc([C@@H]3O[C@H](CO)[C@@H](O)[C@H](O)[C@H]3O)ccc2Cl)cc1 [Dapagliflozin] | 1.08 | inactive: 1.12 | 0.741
COC1=CC(=O)C[C@@H](C)[C@]12Oc1c(Cl)c(OC)cc(OC)c1C2=O [Griseofulvin] | 0.833 | active: 0.286 | 1.11
COc1cc2c(cc1OC)CN(CCc1ccc(NC(=O)c3cccc4c(=O)c5cccc(OC)c5[nH]c34)cc1)CC2 [Elacridar] | 1.02 | inactive: 1.19 | 0.81
Cc1nc(C)c(C)nc1C [Ligustrazine Hydrochloride] | 1.06 | inactive: 0.911 | 1.25
CN1C2CCCC1CC(NC(=O)c1nn(C)c3ccccc13)C2 (centres undefined) [Granisetron HCl] | 1.26 | inactive: 1.39 | 0.774
CC(=O)NS(=O)(=O)c1ccc(N)cc1 [Sulfacetamide Sodium] | 1.23 | inactive: 1.61 | 1.05
N[C@@H]1CONC1=O [D-Cycloserine] | 0.944 | inactive: 0.955 | 1.19
CC1(C)Cc2c(-c3ccccc3)c(-c3ccc(Cl)cc3)c(CC(=O)O)n2C1 [Licofelone] | 1.14 | active: 0.428 | 0.838
CN(C)CCc1c[nH]c2ccc(C[C@H]3COC(=O)N3)cc12 [Zolmitriptan] | 0.987 | inactive: 0.78 | 1.65
COc1ccc2[nH]cc(CCNC(C)=O)c2c1 [Melatonin] | 1.19 | inactive: 1.24 | 1.66
Nc1nc2[nH]cc(CCc3ccc(C(=O)N[C@@H](CCC(=O)O)C(=O)O)cc3)c2c(=O)[nH]1 [Pemetrexed] | 1.12 | inactive: 1.34 | 1.08
CCOC(=O)[C@H](C)C[C@@H](Cc1ccc(-c2ccccc2)cc1)NC(=O)CCC(=O)O [AHU-377 hemicalcium salt] | 1.02 | inactive: 0.746 | 1.37
N[C@@H](Cc1c[nH]c2ccc(O)cc12)C(=O)O [5-hydroxy-L-Tryptophan] | 1.03 | inactive: 0.792 | 1.33
COc1ccc(OC)c(C(O)CNC(=O)CN)c1 (centres undefined) [Midodrine (hydrochloride)] | 0.979 | inactive: 0.832 | 1.64
CCOC(=O)C1=C[C@]2(CC)CCCN3CCc4c(n1c1ccccc41)[C@@H]32 [Vinpocetine] | 1.01 | inactive: 0.904 | 0.726
CN(C)C(=O)c1ccc(S(=O)(=O)c2ccc(NC(=O)[C@@](C)(O)C(F)(F)F)c(Cl)c2)cc1 | 1.25 | active: 0.397 | 0.631
Cc1ccnc2c1NC(=O)c1cccnc1N2C1CC1 [Nevirapine] | 1.01 | inactive: 1.05 | 0.895

Structure (SMILES) | relative cell viability [1] | relative GAG core protein HA-SDC1 amount per cell number [2] | relative mutant VPS33A R498W amount [3]
Cc1cc(C(C)(C)C)cc(C)c1CC1=NCCN1 [Xylometazoline HCl] | 1.06 | inactive: 0.829 | 0.832
C[C@H](CCC(=O)O)[C@H]1CC[C@H]2[C@@H]3CC[C@@H]4C[C@H](O)CC[C@]4(C)[C@H]3CC[C@]12C [Lithocholic Acid] | 1.12 | inactive: 1.01 | 1.17
CC1=C(C(=O)O)N2C(=O)[C@@H](NC(=O)[C@H](N)c3ccccc3)[C@H]2SC1 [Cephalexin] | 1.13 | inactive: 1.62 | 1.05
NCCCC(O)(P(=O)(O)O)P(=O)(O)O [Alendronate sodium] | 1.4 | inactive: 1.44 | 0.891
O=c1oc2cc(O)ccc2s1 [Tioxolone] | 0.819 | active: 0.492 | 0.704
CO/N=C(\C(=O)N[C@@H]1C(=O)N2C(C(=O)OCOC(=O)C(C)(C)C)=C(/C=C\c3scnc3C)CS[C@H]12)c1csc(N)n1 [Cefditoren Pivoxil] | 0.807 | active: 0.378 | 1.89
CC(O)Cn1cnc2c1c(=O)n(C)c(=O)n2C (centres undefined) [Proxyphylline] | 1.04 | inactive: 0.871 | 0.973
Cc1c(-c2cnccn2)ssc1=S [Oltipraz] | 1.16 | inactive: 0.856 | 0.72
CCOC(=O)[C@H](C)C[C@@H](Cc1ccc(-c2ccccc2)cc1)NC(=O)CCC(=O)O [AHU-377(Sacubitril)] | 1.34 | inactive: 0.87 | 0.692
O=C(O)CCCCCCCC(=O)O [Azelaic Acid] | 1.01 | inactive: 0.917 | 1.36
[F-].[Na+] [sodium fluoride] | 1.12 | inactive: 0.957 | 1.1
Nc1ccc(C(=O)NCC(=O)O)cc1 [Sodium 4-amiropparaty Hyalrate] | 1.27 | inactive: 0.801 | 0.774
CCCCNc1ccc(C(=O)OCCN(C)C)cc1 [Tetracaine HCl] | 1.23 | inactive: 1.03 | 1.11
OC[C@@H](O)[C@@H](O)CO [Erythritol] | 0.906 | inactive: 1.05 | 1.39
CCOC(=O)C1=C(C)NC(C)=C(C(=O)OC)C1c1cccc([N+](=O)[O-])c1 (centres undefined) [Nitrendipine] | 1.07 | inactive: 1.28 | 1.02
CC(C)NCC(O)c1ccc(O)c(O)c1 (centres undefined) [Isoprenaline HCl] | 1.2 | inactive: 0.81 | 1.19
CC1(C)O[C@@H]2[C@@H](CO[C@@]3(COS(N)(=O)=O)OC(C)(C)O[C@@H]23)O1 [Topiramate] | 1.04 | inactive: 1.13 | 1.25
C[C@@H]1C[C@H]2[C@@H]3CCC4=CC(=O)C=C[C@]4(C)[C@@]3(F)[C@@H](O)C[C@]2(C)[C@@]1(O)C(=O)CO [Dexamethasone (DHAP)] | 1.2 | inactive: 1.56 | 1.17
